Source: paper PMC6794377
Results are given in words; binding and its absence hold for the method and conditions named. For some of these results: Binding seen in cells or lysates may run through a third protein. Some binding calls cover weakened binding; strength is not graded here. Tags and fused reporters may be left off the sequences shown.

T1: TLN161, N-terminal appended domain of hThrRS-L (Met1-Ile161), Gal4 DNA binding domain fusion (human) (UniProt A2RTX5)
T1 sequence: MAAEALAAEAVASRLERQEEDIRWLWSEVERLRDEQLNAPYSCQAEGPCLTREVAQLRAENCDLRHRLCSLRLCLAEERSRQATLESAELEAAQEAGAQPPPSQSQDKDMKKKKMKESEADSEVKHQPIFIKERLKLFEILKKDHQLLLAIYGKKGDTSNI

T2: C-terminal FLAG-tagged human threonyl-tRNA synthetase-like protein (hThrRS-L-FLAG) (human) (UniProt A2RTX5)
T2 sequence: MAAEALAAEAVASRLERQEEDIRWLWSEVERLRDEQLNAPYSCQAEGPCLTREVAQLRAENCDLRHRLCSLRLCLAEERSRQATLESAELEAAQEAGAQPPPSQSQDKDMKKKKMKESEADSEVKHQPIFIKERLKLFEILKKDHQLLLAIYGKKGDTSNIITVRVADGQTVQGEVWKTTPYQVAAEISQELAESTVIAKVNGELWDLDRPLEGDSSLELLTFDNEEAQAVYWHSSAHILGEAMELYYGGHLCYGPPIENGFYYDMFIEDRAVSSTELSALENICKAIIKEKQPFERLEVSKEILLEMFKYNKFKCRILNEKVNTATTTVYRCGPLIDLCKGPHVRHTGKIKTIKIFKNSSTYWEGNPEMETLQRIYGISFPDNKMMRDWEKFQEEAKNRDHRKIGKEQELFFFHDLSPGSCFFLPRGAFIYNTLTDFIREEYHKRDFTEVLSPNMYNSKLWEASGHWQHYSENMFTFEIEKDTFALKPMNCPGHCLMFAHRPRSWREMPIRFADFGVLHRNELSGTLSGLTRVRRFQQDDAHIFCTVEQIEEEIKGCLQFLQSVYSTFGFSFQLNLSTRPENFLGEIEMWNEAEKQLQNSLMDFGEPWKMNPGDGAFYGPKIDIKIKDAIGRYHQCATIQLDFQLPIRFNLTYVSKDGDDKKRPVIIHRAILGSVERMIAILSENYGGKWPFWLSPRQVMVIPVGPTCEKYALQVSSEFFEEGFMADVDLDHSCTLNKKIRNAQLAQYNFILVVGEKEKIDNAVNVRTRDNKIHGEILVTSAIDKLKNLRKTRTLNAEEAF

T3: hThrRS-L-Δ161-FLAG, hThrRS-L with TLN161 deleted, C-terminal FLAG tag (human) (UniProt A2RTX5)
T3 sequence: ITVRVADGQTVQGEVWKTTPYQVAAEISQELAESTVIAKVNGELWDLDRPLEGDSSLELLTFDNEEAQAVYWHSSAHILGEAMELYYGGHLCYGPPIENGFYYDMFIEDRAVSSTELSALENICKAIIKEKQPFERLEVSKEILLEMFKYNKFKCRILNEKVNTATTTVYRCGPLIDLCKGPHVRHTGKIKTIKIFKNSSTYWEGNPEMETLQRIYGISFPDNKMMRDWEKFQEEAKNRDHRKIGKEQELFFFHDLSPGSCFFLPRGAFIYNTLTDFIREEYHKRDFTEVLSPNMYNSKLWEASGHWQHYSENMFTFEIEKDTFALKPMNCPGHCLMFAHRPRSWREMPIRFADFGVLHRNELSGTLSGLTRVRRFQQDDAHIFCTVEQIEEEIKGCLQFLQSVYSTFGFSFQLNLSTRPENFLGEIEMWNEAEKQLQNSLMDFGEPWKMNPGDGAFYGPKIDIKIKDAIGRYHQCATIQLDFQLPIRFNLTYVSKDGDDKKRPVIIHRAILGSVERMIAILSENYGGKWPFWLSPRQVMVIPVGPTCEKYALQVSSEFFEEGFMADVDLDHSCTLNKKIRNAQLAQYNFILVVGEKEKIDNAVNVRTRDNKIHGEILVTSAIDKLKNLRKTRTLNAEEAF

T4: native p43 (AIMP1), endogenous in human cells (human (endogenous in HEK293T and HeLa)) (UniProt Q12904)
T4 sequence: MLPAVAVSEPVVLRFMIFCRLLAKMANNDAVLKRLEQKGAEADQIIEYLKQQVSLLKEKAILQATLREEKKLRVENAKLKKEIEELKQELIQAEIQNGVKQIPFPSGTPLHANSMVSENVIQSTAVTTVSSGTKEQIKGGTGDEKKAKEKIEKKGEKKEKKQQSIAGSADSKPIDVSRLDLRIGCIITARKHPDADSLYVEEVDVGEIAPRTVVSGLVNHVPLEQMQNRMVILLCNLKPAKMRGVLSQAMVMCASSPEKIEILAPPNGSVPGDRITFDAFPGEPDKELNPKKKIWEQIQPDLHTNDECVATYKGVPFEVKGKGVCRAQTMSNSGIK


Key:
[1] = target: T1, TLN161, N-terminal appended domain of hThrRS-L (Met1-Ile161), Gal4 DNA binding domain fusion (human); experiment: two-hybrid; pairwise: pGADT7 construct and pGBKT7 construct together in Y2HGold; growth on QDO/X/A (SD/QDO/X) plates
[2] = target: T2, C-terminal FLAG-tagged human threonyl-tRNA synthetase-like protein (hThrRS-L-FLAG) (human); experiment: co-IP; FLAG-tagged hThrRS-L or mutant overexpressed in HEK293T; IP with anti-FLAG, Dynabeads protein G, 4°C; endogenous partners detected by western blotting
[3] = target: T3, hThrRS-L-Δ161-FLAG, hThrRS-L with TLN161 deleted, C-terminal FLAG tag (human); experiment: as above
[4] = target: T4, native p43 (AIMP1), endogenous in human cells (human (endogenous in HEK293T and HeLa)); experiment: co-IP; transfected HEK293T lysate, IP with anti-p43 antibodies; western blotting

binding [1] | binding [4] | Binder | further results
no binding | – | p43(79-336), Gal4 activation domain fusion (domain or fragment, UniProt Q12904-2 79-336) LKKEIEELKQELIQAEIQNGVKQIPFPSGTPLHANSMVSENVIQSTAVTTVSSGTKEQIKGGTGDEKKAKEKIEKKGEKKEKKQQSIAGSADSKPIDVSRLDLRIGCIITARKHPDADSLYVEEVDVGEIAPRTVVSGLVNHVPLEQMQNRMVILLCNLKPAKMRGVLSQAMVMCASSPEKIEILAPPNGSVPGDRITFDAFPGEPDKELNPKKKIWEQIQPDLHTNDECVATYKGVPFEVKGKGVCRAQTMSNSGIK | –
– | – | GlnRS, endogenous in HEK293T (enzyme, UniProt P47897 1-775) MAALDSLSLFTSLGLSEQKARETLKNSALSAQLREAATQAQQTLGSTIDKATGILLYGLASRLRDTRRLSFLVSYIASKKIHTEPQLSAALEYVRSHPLDPIDTVDFERECGVGVIVTPEQIEEAVEAAINRHRPQLLVERYHFNMGLLMGEARAVLKWADGKMIKNEVDMQVLHLLGPKLEADLEKKFKVAKARLEETDRRTAKDVVENGETADQTLSLMEQLRGEALKFHKPGENYKTPGYVVTPHTMNLLKQHLEITGGQVRTRFPPEPNGILHIGHAKAINFNFGYAKANNGICFLRFDDTNPEKEEAKFFTAICDMVAWLGYTPYKVTYASDYFDQLYAWAVELIRRGLAYVCHQRGEELKGHNTLPSPWRDRPMEESLLLFEAMRKGKFSEGEATLRMKLVMEDGKMDPVAYRVKYTPHHRTGDKWCIYPTYDYTHCLCDSIEHITHSLCTKEFQARRSSYFWLCNALDVYCPVQWEYGRLNLHYAVVSKRKILQLVATGAVRDWDDPRLFTLTALRRRGFPPEAINNFCARVGVTVAQTTMEPHLLEACVRDVLNDTAPRAMAVLESLRVIITNFPAAKSLDIQVPNFPADETKGFHQVPFAPIVFIERTDFKEEPEPGFKRLAWGQPVGLRHTGYVIELQHVVKGPSGCVESLEVTCRRADAGEKPKAFIHWVSQPLMCEVRLYERLFQHKNPEDPTEVPGGFLSDLNLASLHVVDAALVDCSVALAKPFDKFQFERLGYFSVDPDSHQGKLVFNRTVTLKEDPGKV | binding [2]: binds; binding [3]: no binding
binds | – | p43(1-78), Gal4 activation domain fusion (domain or fragment, UniProt Q12904-2 1-78) MLPAVAVSEPVVLRFMIFCRLLAKMANNDAVLKRLEQKGAEADQIIEYLKQQVSLLKEKAILQATLREEKKLRVENAK | –
– | no binding | hThrRS-L-Ha/A-FLAG (enzyme, UniProt A2RTX5 1-802) MAAEALAAEAVASRAERQEEDARWAWSEAERARDEQLNAPYSCQAEGPCLTREVAQLRAENCDLRHRLCSLRLCLAEERSRQATLESAELEAAQEAGAQPPPSQSQDKDMKKKKMKESEADSEVKHQPIFIKERLKLFEILKKDHQLLLAIYGKKGDTSNIITVRVADGQTVQGEVWKTTPYQVAAEISQELAESTVIAKVNGELWDLDRPLEGDSSLELLTFDNEEAQAVYWHSSAHILGEAMELYYGGHLCYGPPIENGFYYDMFIEDRAVSSTELSALENICKAIIKEKQPFERLEVSKEILLEMFKYNKFKCRILNEKVNTATTTVYRCGPLIDLCKGPHVRHTGKIKTIKIFKNSSTYWEGNPEMETLQRIYGISFPDNKMMRDWEKFQEEAKNRDHRKIGKEQELFFFHDLSPGSCFFLPRGAFIYNTLTDFIREEYHKRDFTEVLSPNMYNSKLWEASGHWQHYSENMFTFEIEKDTFALKPMNCPGHCLMFAHRPRSWREMPIRFADFGVLHRNELSGTLSGLTRVRRFQQDDAHIFCTVEQIEEEIKGCLQFLQSVYSTFGFSFQLNLSTRPENFLGEIEMWNEAEKQLQNSLMDFGEPWKMNPGDGAFYGPKIDIKIKDAIGRYHQCATIQLDFQLPIRFNLTYVSKDGDDKKRPVIIHRAILGSVERMIAILSENYGGKWPFWLSPRQVMVIPVGPTCEKYALQVSSEFFEEGFMADVDLDHSCTLNKKIRNAQLAQYNFILVVGEKEKIDNAVNVRTRDNKIHGEILVTSAIDKLKNLRKTRTLNAEEAF | –
– | no binding | hThrRS-L-Hb/A-FLAG (enzyme, UniProt A2RTX5 1-802) MAAEALAAEAVASRLERQEEDIRWLWSEVERLRDEQLNAPYSCQAEGPCLTREVAQARAENCDARHRACSARLCAAEERSRQATLESAELEAAQEAGAQPPPSQSQDKDMKKKKMKESEADSEVKHQPIFIKERLKLFEILKKDHQLLLAIYGKKGDTSNIITVRVADGQTVQGEVWKTTPYQVAAEISQELAESTVIAKVNGELWDLDRPLEGDSSLELLTFDNEEAQAVYWHSSAHILGEAMELYYGGHLCYGPPIENGFYYDMFIEDRAVSSTELSALENICKAIIKEKQPFERLEVSKEILLEMFKYNKFKCRILNEKVNTATTTVYRCGPLIDLCKGPHVRHTGKIKTIKIFKNSSTYWEGNPEMETLQRIYGISFPDNKMMRDWEKFQEEAKNRDHRKIGKEQELFFFHDLSPGSCFFLPRGAFIYNTLTDFIREEYHKRDFTEVLSPNMYNSKLWEASGHWQHYSENMFTFEIEKDTFALKPMNCPGHCLMFAHRPRSWREMPIRFADFGVLHRNELSGTLSGLTRVRRFQQDDAHIFCTVEQIEEEIKGCLQFLQSVYSTFGFSFQLNLSTRPENFLGEIEMWNEAEKQLQNSLMDFGEPWKMNPGDGAFYGPKIDIKIKDAIGRYHQCATIQLDFQLPIRFNLTYVSKDGDDKKRPVIIHRAILGSVERMIAILSENYGGKWPFWLSPRQVMVIPVGPTCEKYALQVSSEFFEEGFMADVDLDHSCTLNKKIRNAQLAQYNFILVVGEKEKIDNAVNVRTRDNKIHGEILVTSAIDKLKNLRKTRTLNAEEAF | –
– | binds | TLN161 fused with a C-terminal EGFP (TLN161-EGFP) (domain or fragment, UniProt A2RTX5 1-161) MAAEALAAEAVASRLERQEEDIRWLWSEVERLRDEQLNAPYSCQAEGPCLTREVAQLRAENCDLRHRLCSLRLCLAEERSRQATLESAELEAAQEAGAQPPPSQSQDKDMKKKKMKESEADSEVKHQPIFIKERLKLFEILKKDHQLLLAIYGKKGDTSNI | –
